± gives the standard error. Variants at the floor of the assay are shown more often than the library holds them.
B1: glmS ribozyme (parent)
chain: AUAAAAGCGCCAGAACUACAGAAAUGUAGUUGACGAGGAGGAGGUUUAUCGAAUUUUCGGCGGAUGCCUCCAAA

Assays:
Settings in all cases: with glucosamine-6-phosphate
[1] = variants of: B1; experiment: self-cleavage kobs at 40 uM GlcN6P; higher = faster cleavage; RNA array
Procedure, shortened: (§1)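 Tracking of barcoded ribozyme variants used a hybridised Cy3 probe at 37 °C, after in situ transcription by E. coli RNA polymerase on sequenced MiSeq chips. The flowed solution held 40 μM to 10 mM glucosamine-6-phosphate in HEPES/KCl/Mg(OAc)2 buffer, and imaging ran over ~14 h. kobs was taken from exponential decay fits of normalised per-tile medians, and kcat and KM from weighted Michaelis–Menten fits.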

[2] = variants of: B1; experiment: self-cleavage kobs at 640 uM GlcN6P; higher = faster cleavage; RNA array
Procedure, shortened: as §1

[3] = variants of: B1; experiment: self-cleavage kobs at 10000 uM GlcN6P; higher = faster cleavage; RNA array
Procedure, shortened: as §1

[4] = variants of: B1; experiment: self-cleavage kobs at 160 uM GlcN6P; higher = faster cleavage; RNA array
Procedure, shortened: as §1

[5] = variants of: B1; experiment: self-cleavage kobs at 2500 uM GlcN6P; higher = faster cleavage; RNA array
Procedure, shortened: as §1

Row | Variant | self-cleavage kobs at 40 uM GlcN6P [1] [s⁻¹] | self-cleavage kobs at 640 uM GlcN6P [2] [s⁻¹] | self-cleavage kobs at 10000 uM GlcN6P [3] [s⁻¹] | self-cleavage kobs at 160 uM GlcN6P [4] [s⁻¹] | self-cleavage kobs at 2500 uM GlcN6P [5] [s⁻¹]
1 | AUAAAAGCGCCAGAACUACAGAAAUGUAGUUGACGAGGAGGAGGUUUAUCGAAAUUUCGGUAGAUGCCUCCAAA [U54A C61U G62A] | < 1e-05 | < 1e-05 | < 1e-05 | – | –
2 | AUAAAAGCGCCAGAACUACAGAAAUGUAGUUGACGAGGAGGAGGUUUAUCGAGUCUUCGGCGGAUGCCUCCAAA [A53G U55C] | 0.000669 ± 7.9e-05 | 0.00872 ± 0.0013 | 0.0167 ± 0.0032 | 0.00157 ± 0.00027 | 0.0106 ± 0.0024
3 | AUAAAAGCGCCAGAACUACAGAAAUGUAGUUGACGAGGAGGAGGUUUAUCGAACUUUCGCCGGAUGCCUCCAAA [U54C G60C] | < 1e-05 | – | < 1e-05 | < 1e-05 | < 1e-05
4 | AUAAAAGCGCCAGAACUACAGAAAUGUAGUUGACGAGGAGGAGGUUUAUCGACUUUUCGUCCGAUGCCGCCAAA [A53C G60U G62C U69G] | < 1e-05 | – | – | – | –
5 | AUAAAAGCGCCAGAACUACAGAAAUGUAGUUGACGAGGAGGAGGUUUAUCGAAAUUUCCGCGGAUGCCUCCAAA [U54A G59C] | < 1e-05 | < 1e-05 | – | < 1e-05 | –
6 | AUAAAAGCGCCAGAACUACAGAAAUGUAGUUGACGAGGAGGAGGUUUAUCGAUUUUUCGGCGGAUGACUCCAAA [A53U C67A] | 0.000214 ± 2.6e-05 | 0.0014 ± 0.00022 | – | 0.000559 ± 8.4e-05 | –
7 | AUAAAAGCGCCAGAACUACAGAAAUGUAGUUGACGAGGAGGAGGUUUAUCGAACUAUCGGCGGAUGCCUCCAAA [U54C U56A] | 0.000356 ± 6.9e-05 | 0.00291 ± 0.00036 | 0.0163 ± 0.0038 | 0.000584 ± 0.00011 | 0.00483 ± 0.00092
8 | AUAAAAGCGCCAGAACUACAGAAAUGUAGUUGACGAGGAGGAGGUUUAUCGAGUUUUCGCCGGAUGCCUGCAAA [A53G G60C C70G] | < 1e-05 | – | < 1e-05 | – | –
9 | AUAAAAGCGCCAGAACUACAGAAAUGUAGUUGACGAGGAGGAGGUUUAUCGACUUUUGGGCGGAUGCCUCCAAA [A53C C58G] | < 1e-05 | – | – | – | –
10 | AUAAAAGCGCCAGAACUACAGAAAUGUAGUUGACGAGGAGGAGGUUUAUCGACUUUUCGCCGGAUGCCUCCAAA [A53C G60C] | < 1e-05 | < 1e-05 | – | < 1e-05 | –
11 | AUAAAAGCGCCAGAACUACAGAAAUGUAGUUGACGAGGAGGAGGUUUAUCGACUUUUCGACGGAUGCCUCCAAA [A53C G60A] | < 1e-05 | – | – | < 1e-05 | –
12 | AUAAAAGCGCCAGAACUACAGAAAUGUAGUUGACGAGGAGGAGGUUUAUCGAAAUUUCGGCGGAGGCCUCCAAA [U54A U65G] | 5.78e-05 ± 9.8e-06 | 0.000927 ± 0.00015 | 0.00358 ± 0.00043 | 0.000211 ± 3.9e-05 | 0.001 ± 0.00025

— the supplement of paper PMC7125110
